The values that follow come from PMC4336329 (PLoS ONE, 2015).

Each structure is given as a SMILES string. Screen size: about 310,000 compounds; about 2,200 (0.71%) showed an effect of 50% or more. Effects have a minus sign here. This is one part of the list.

human ether-à-go-go-related gene (hERG) potassium channel, sequence (Q12809 whole entry, looked up): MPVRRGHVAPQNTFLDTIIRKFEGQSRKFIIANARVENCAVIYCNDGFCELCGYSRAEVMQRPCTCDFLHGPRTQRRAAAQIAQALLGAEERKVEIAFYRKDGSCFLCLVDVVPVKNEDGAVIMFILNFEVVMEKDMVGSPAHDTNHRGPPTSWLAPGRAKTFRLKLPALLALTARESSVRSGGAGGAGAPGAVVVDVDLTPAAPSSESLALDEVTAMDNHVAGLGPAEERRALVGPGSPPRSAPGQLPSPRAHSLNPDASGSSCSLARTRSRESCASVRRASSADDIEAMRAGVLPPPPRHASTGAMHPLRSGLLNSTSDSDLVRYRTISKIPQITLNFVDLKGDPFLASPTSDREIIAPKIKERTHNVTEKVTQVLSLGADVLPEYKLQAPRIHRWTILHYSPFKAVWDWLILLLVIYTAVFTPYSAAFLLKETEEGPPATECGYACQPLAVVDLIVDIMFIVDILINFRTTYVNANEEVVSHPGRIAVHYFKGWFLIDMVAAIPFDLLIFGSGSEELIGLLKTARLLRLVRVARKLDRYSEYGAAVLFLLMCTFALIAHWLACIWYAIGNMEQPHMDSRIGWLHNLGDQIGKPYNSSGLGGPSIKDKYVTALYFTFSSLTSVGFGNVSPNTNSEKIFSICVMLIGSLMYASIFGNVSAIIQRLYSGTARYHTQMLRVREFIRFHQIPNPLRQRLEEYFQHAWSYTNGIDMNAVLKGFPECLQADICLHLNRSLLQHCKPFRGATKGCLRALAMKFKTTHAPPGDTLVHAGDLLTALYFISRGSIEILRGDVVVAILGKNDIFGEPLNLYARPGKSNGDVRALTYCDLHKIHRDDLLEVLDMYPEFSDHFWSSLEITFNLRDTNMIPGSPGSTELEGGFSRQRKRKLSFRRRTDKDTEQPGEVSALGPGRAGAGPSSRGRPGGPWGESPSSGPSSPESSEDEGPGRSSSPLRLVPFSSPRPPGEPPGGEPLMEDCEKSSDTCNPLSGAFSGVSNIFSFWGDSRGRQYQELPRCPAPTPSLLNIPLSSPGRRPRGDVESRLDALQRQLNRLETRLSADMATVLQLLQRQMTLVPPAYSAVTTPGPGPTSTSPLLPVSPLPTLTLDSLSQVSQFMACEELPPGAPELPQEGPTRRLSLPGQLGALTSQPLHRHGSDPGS

The assay concerns the target human ether-à-go-go-related gene (hERG) potassium channel (human, UniProt Q12809). The assay can be described thus: primary screen, population patch clamp on CHO cells stably expressing hERG.
`CCCCn1c(-c2ccc(Br)cc2F)nc2c1c(=O)[nH]c(=O)n2CC(C)C`: the “hERG current change (%, negative = inhibition) at 1uM” value is 9.08%.
Consider `CCOC(=O)C1=C(C)NC(=O)NC1c1ccsc1` (centres unmarked), for which the “hERG current change (%, negative = inhibition) at 1uM” value is listed as 8.25%.
Take `COc1ccc(C(=O)c2cc(C(C)=O)c(Nc3ccccc3)s2)cc1`: the “hERG current change (%, negative = inhibition) at 1uM” value was -5.05%.
With `CCC1(c2ccc(F)cc2)NC(=O)N(CC(=O)N2CCc3ccccc32)C1=O` (centres unmarked) the figure was -2.15%; with `CCCNC(=O)c1ccc2c(c1)ncn2-c1ccccc1OC`, -31.8%.
Regarding `CN(CC(=O)Nc1sc2c(c1C#N)CCCCC2)Cc1nc2ccccc2c(=O)[nH]1`, the “hERG current change (%, negative = inhibition) at 1uM” value came out at 14.8%.
With `O=C(NCc1ccc(Cl)cc1)C(=O)NCC1OCCN1S(=O)(=O)c1ccc2c(c1)OCCO2` (centres unmarked) the figure was 5.43%.
For the compound `Cc1nnc(NC(=O)C2CCCN(c3ncccn3)C2)s1` (centres unmarked), the “hERG current change (%, negative = inhibition) at 1uM” value stood at 2.94%.
On to `CCC(C)[C@H]1COCCS(=O)(=O)N1Cc1ccc(Cl)cc1Cl` (some centres unmarked), for which the “hERG current change (%, negative = inhibition) at 1uM” value was -10.8%.
Under `CCCn1nc(C(=O)N2CCN(S(=O)(=O)c3ccc(C)c(C)c3)CC2)c2ccccc2c1=O` stands 7.33%; under `O=C(NCc1ccc2c(c1)OCO2)c1ccccc1Cl`, 9.01%; under `O=C1CN(c2cc(Cl)cc(Cl)c2)C(=O)CN1/N=C/c1cccnc1`, 5.68%.
In the case of `C=Cn1ccnc1P(O)(=S)c1nc(C)c(CCOC(C)=O)s1` (centres unmarked), the “hERG current change (%, negative = inhibition) at 1uM” value is listed as -2.08%.
Under `CCCNC(=O)CN1CCN(S(=O)(=O)c2ccc(Br)s2)CC1` stands -0.838%; under `CC(=O)N1c2ccccc2NC2=C(C(=O)CCC2)C1c1ccc(F)cc1` (centres unmarked), 6.44%; under `COCCNC(=O)c1ccc2c3n(nc2c1)-c1ccc(Cl)cc1CO3`, -0.937%.
With `COCC(=O)N(Cc1cc2ccc(C)cc2[nH]c1=O)c1ccc(OC)cc1` the figure was 2.24%.
In the case of `Cc1cccc(Nc2c(F)c(F)c(F)c(F)c2C(=O)O)c1`, the “hERG current change (%, negative = inhibition) at 1uM” value was 9.87%.
`O=C(NCCc1ccc2c(c1)OCCO2)c1cccc(F)c1`: the “hERG current change (%, negative = inhibition) at 1uM” value is 5.26%.
Consider `COc1ccc([C@@H]2CC=C(C(=O)O)[C@H](c3ccc(F)cc3)N2S(=O)(=O)c2ccc(Cl)cc2)cc1`, for which the “hERG current change (%, negative = inhibition) at 1uM” value is given as 16%.
With `O=C(Nc1cc(C(F)(F)F)ccc1N1CCOCC1)C1Cc2ccccc2CN1C(=O)c1ccco1` (centres unmarked), the “hERG current change (%, negative = inhibition) at 1uM” value is listed as 10.9%.
As for `Cc1occc1C(=O)NNC(=O)c1ccccc1[N+](=O)[O-]`, the “hERG current change (%, negative = inhibition) at 1uM” value is reported as 15.8%.
Under `CN(Cc1ccccc1)C(=O)COc1ccccc1` stands 8.18%.
On to `O=C1CN(C(=O)COC(=O)CNS(=O)(=O)/C=C/c2ccccc2)c2ccccc2N1`, for which the “hERG current change (%, negative = inhibition) at 1uM” value is listed as 10.2%.
As for `CC(C)OCCCNC(=O)CN1CCN(Cc2ccccc2Cl)C1=O`, the “hERG current change (%, negative = inhibition) at 1uM” value was found to be 2.66%.
With `O=C(Cn1c(=O)n(Cc2ccco2)c(=O)c2ccccc21)NCC1CCCO1` (centres unmarked) the figure was 12.6%; with `O=S(=O)(c1ccccc1)c1nc(-c2ccccc2)oc1NCCCN1CCOCC1`, -2.08%; with `O=C(O)C1CSC(c2ccc3c(c2)OCO3)N1` (centres unmarked), 7.87%.
Turning to `Cc1ccc(S(=O)(=O)N2CCC(C(=O)OCC(=O)N(C)C3CCS(=O)(=O)C3)CC2)cc1C` (centres unmarked), the “hERG current change (%, negative = inhibition) at 1uM” value is 6.56%.
For the compound `COc1cc(N2CCOCC2)ccc1/C=C1\C(=O)NC(=O)N(C2CCCCC2)C1=O`, the “hERG current change (%, negative = inhibition) at 1uM” value stood at 7.79%.
On to `CCNc1c2c(nc3ccccc13)CC(C)(C)CC2=O.O=C(O)C(=O)O`, for which the “hERG current change (%, negative = inhibition) at 1uM” value is recorded as -38.1%.
For `Cc1ccc(S(=O)(=O)N2CCOCC2)cc1C(=O)N1c2ccccc2Sc2ccccc21`, the “hERG current change (%, negative = inhibition) at 1uM” value is 9.26%.
Consider `Cc1ccc(C)c(N(C(=O)Cc2cccs2)C(C(=O)NC2CCCC2)c2ccc(C)o2)c1` (centres unmarked), for which the “hERG current change (%, negative = inhibition) at 1uM” value is given as 7.45%.
Turning to `CC(=O)c1ccc(N2CCN(C(=O)c3noc4c3CSc3ccccc3-4)CC2)cc1`, the “hERG current change (%, negative = inhibition) at 1uM” value is on record as 14.9%.
Regarding `O=C(NCc1ccc(F)cc1)c1ccc(CS(=O)(=O)Cc2ccccc2F)o1`, the “hERG current change (%, negative = inhibition) at 1uM” value is 9.27%.
Under `Cc1ccc(NC(=O)CCC(=O)N2CCOCC2)nc1` stands 11.3%; under `CC1(C(=O)N/N=C/c2c(F)c(F)c(F)c(F)c2F)CC1(Cl)Cl` (centres unmarked), 15.2%.
Take `COc1ccc(NC(=O)CSc2nnc(-c3ccncc3)n2CC2CCCO2)c(OC)c1` (centres unmarked): the “hERG current change (%, negative = inhibition) at 1uM” value came to 5.44%.
Under `COc1ccc(OC)c(NC(=O)Nc2ccc3c(c2)CCC3)c1` stands 9.13%.
With `COc1cc(C(CCN2CCCC2)c2c(OC)cc(OC)c3c(C)cc(=O)oc23)cc(OC)c1OC` (centres unmarked) the figure was -69%.
In the case of `COC(=O)c1cccc(NC(=O)c2cccs2)c1C`, the “hERG current change (%, negative = inhibition) at 1uM” value is recorded as 10.4%.
Turning to `CCC1Oc2ccccc2N(CC(=O)NCCCN2CCC(C)CC2)C1=O` (centres unmarked), the “hERG current change (%, negative = inhibition) at 1uM” value was 0.839%.
`O=C1COc2ccc(S(=O)(=O)Nc3ccc(F)cc3)cc2N1`: the “hERG current change (%, negative = inhibition) at 1uM” value is 9.76%.
Under `CCCN(Cc1nnc(-c2ccccc2Cl)o1)C(=O)c1cc2ccccc2o1` stands 5.07%.
Take `Cn1c(SCC(=O)Nc2cc(C(C)(C)C)nn2-c2ccccc2)nc2ccccc21`: the “hERG current change (%, negative = inhibition) at 1uM” value is 6.86%.
On to `CS(=O)(=O)N(CC(=O)N1CCOCC1)c1cccc(F)c1`, for which the “hERG current change (%, negative = inhibition) at 1uM” value came to 21%.
For the compound `COc1ccc(NC(=S)N2CCN(c3ccccn3)CC2)cc1OC`, the “hERG current change (%, negative = inhibition) at 1uM” value amounted to 12%.
As to `CCOC(=O)C1=C(c2ccccc2)O/C(=C(/C(=O)OC)C(F)(F)F)S1`, the “hERG current change (%, negative = inhibition) at 1uM” value amounted to 7.22%.
For the compound `CCCn1c(SCC(=O)c2ccc3c(c2)OCCO3)nnc1-c1ccco1`, the “hERG current change (%, negative = inhibition) at 1uM” value is 12.7%.
For `Cc1cc(SCC(=O)NN=C2CCN(C(C)C)CC2)c(C)cc1Br`, the “hERG current change (%, negative = inhibition) at 1uM” value is -1.46%.
With `COc1ccc([N+](=O)[O-])cc1NC(=O)CSCc1cc(C)cc(C)c1`, the “hERG current change (%, negative = inhibition) at 1uM” value is listed as 9.81%.
Consider `CCOc1ccc(CNc2nnnn2C)cc1OC`, for which the “hERG current change (%, negative = inhibition) at 1uM” value was 8.7%.
With `CCOC(=O)C(CN1CCCC1)c1ccccc1` (centres unmarked) the figure was 8.71%.
As for `COc1ccc(OC)c(CNC(=O)c2cc(=O)[nH]c3ccc(S(=O)(=O)N4CCCC4)cc23)c1`, the “hERG current change (%, negative = inhibition) at 1uM” value is listed as 13.5%.
As for `O=C(CCNC(=O)c1ccc(Cl)cc1)Nc1ccc(F)cc1F`, the “hERG current change (%, negative = inhibition) at 1uM” value is given as 20.9%.
Regarding `CC(C)(C)c1ccc(NC(=O)c2ccccc2)c([N+](=O)[O-])c1`, the “hERG current change (%, negative = inhibition) at 1uM” value was 3.52%.
Regarding `CC(=O)O.O=C(NCC1CCCCN1)c1cc(OCC(F)(F)F)ccc1OCC(F)(F)F` (centres unmarked), the “hERG current change (%, negative = inhibition) at 1uM” value was -29.7%.
As for `CC1(C)N=C(c2cccs2)C(C)(C)N1O`, the “hERG current change (%, negative = inhibition) at 1uM” value worked out at 11.5%.
For `CCOC(=O)C1Nc2ccccc2C2c3ccccc3CC12` (centres unmarked), the “hERG current change (%, negative = inhibition) at 1uM” value is 18.1%.
Take `COc1ccc(CN2CCN(C(=O)C3CC(=O)N(C4CCCCCC4)C3)CC2)c(OC)c1OC` (centres unmarked): the “hERG current change (%, negative = inhibition) at 1uM” value worked out at 14.8%.
For `OCC1CCCN(C(=S)Nc2ccc(Oc3ccccc3)cc2)C1` (centres unmarked), the “hERG current change (%, negative = inhibition) at 1uM” value is recorded as 12.8%.
In the case of `CCC(C)[C@H](NC(=O)N1CCn2c1nc1ccccc12)C(=O)NCC1CCCO1` (some centres unmarked), the “hERG current change (%, negative = inhibition) at 1uM” value worked out at 5.23%.
For `CCC(C)c1ccccc1N1CC(C(=O)NCCC2=CCCCC2)CC1=O` (centres unmarked), the “hERG current change (%, negative = inhibition) at 1uM” value stood at 7.27%.
Take `COC(=O)C(C)NC(=O)C1CCCN1S(=O)(=O)c1cc(C)c(Cl)cc1C` (centres unmarked): the “hERG current change (%, negative = inhibition) at 1uM” value was determined as 15.5%.
Turning to `COC(=O)c1ccccc1NC(=S)NC(=O)c1ccc(C)cc1`, the “hERG current change (%, negative = inhibition) at 1uM” value was determined as 9.88%.
On to `Cc1ccc(NC(=O)CN(C)S(=O)(=O)c2ccc3c(c2)c(=O)n(C)c(=O)n3C)cc1`, for which the “hERG current change (%, negative = inhibition) at 1uM” value was found to be 7.08%.
Regarding `CC(=O)c1cccc(NC(=O)CCNC(=O)c2cccc(C)c2)c1`, the “hERG current change (%, negative = inhibition) at 1uM” value stood at 10.2%.
With `Cc1ccn2c(=O)nc(SCC(=O)N3CCCCC3)nc2c1`, the “hERG current change (%, negative = inhibition) at 1uM” value is recorded as -1.39%.
Under `O=C(CCN1C(=O)/C(=C/C=C/c2ccccc2)SC1=S)Nc1nc2ccccc2s1` stands 16.3%; under `CN(C)CCCN(C(=O)c1ccc(S(=O)(=O)N2CCCC2)cc1)c1nc2ccc(Br)cc2s1.Cl`, 11.7%; under `O=C(CCCCC(=O)NNC(=O)COc1ccccc1)NNC(=O)COc1ccccc1`, 4.18%.
With `O=C(C1CCCN(c2ncnc3c2nc2n3CCCCC2)C1)N1CCN(c2ccc(Cl)cc2)CC1` (centres unmarked) the figure was 7.33%.
On to `COC(CNC(=O)c1ccc(CS(=O)(=O)c2ccc(C)cc2)o1)OC`, for which the “hERG current change (%, negative = inhibition) at 1uM” value was 4.29%.
Consider `CCOC(=O)COc1cc(N2C(=O)CSCC2=O)c(Cl)cc1Cl`, for which the “hERG current change (%, negative = inhibition) at 1uM” value is given as 5.92%.
Consider `CCOc1ccc(-n2c(C)nc(O)c2N=Nc2ccccc2)cc1`, for which the “hERG current change (%, negative = inhibition) at 1uM” value came to 16.4%.
Consider `c1cn2c(Nc3ccc4c(c3)OCCO4)c(-c3ccc(N4CCOCC4)cc3)nc2cn1`, for which the “hERG current change (%, negative = inhibition) at 1uM” value is on record as -4.08%.
As to `Cc1cc(C)n2nc(SCC(=O)c3c(N)n(CC(C)C)c(=O)n(C)c3=O)nc2n1`, the “hERG current change (%, negative = inhibition) at 1uM” value is recorded as 5.54%.
Regarding `Cc1ccc(CC(=O)NCc2ccc3c(c2)OCO3)cc1`, the “hERG current change (%, negative = inhibition) at 1uM” value amounted to 5.65%.
On to `CC(C)N1C/C(=C/c2ccsc2)C(=O)/C(=C/c2ccsc2)C1`, for which the “hERG current change (%, negative = inhibition) at 1uM” value is on record as -11.3%.
As to `O=[N+]([O-])c1ccccc1CN1CCN(Cc2ccccn2)CC1`, the “hERG current change (%, negative = inhibition) at 1uM” value is recorded as 15.4%.
`CC(CCc1ccccc1)NC(=O)CSc1nccc(=O)[nH]1` (centres unmarked): the “hERG current change (%, negative = inhibition) at 1uM” value stood at 7.61%.
With `COC(=O)CC(NC(=O)Nc1ccc(C)cc1)c1cccc([N+](=O)[O-])c1` (centres unmarked) the figure was 14.1%; with `CN1CCC(=O)N(CCOc2ccccc2)CC1`, 16.1%.
For the compound `Cc1ccc(C)c(N2C(=O)c3ccc(C(=O)OCC(=O)c4c(N)n(C)c(=O)n(C)c4=O)cc3C2=O)c1`, the “hERG current change (%, negative = inhibition) at 1uM” value amounted to 10.8%.
As for `CCC1=NN=C(c2ccc(F)cc2)C(c2c[nH]c3ccccc23)N1O` (centres unmarked), the “hERG current change (%, negative = inhibition) at 1uM” value is given as 4.78%.
On to `Cn1nc(C(=O)OCC(=O)Nc2ccc(S(N)(=O)=O)cc2)c2ccccc2c1=O`, for which the “hERG current change (%, negative = inhibition) at 1uM” value is listed as 4.73%.
